Laboratory results from PubChem BioAssay AID493035 (The Scripps Research Institute Molecular Screening Center, 2011).
In all, about 2,000 compounds went through this assay and about 45 (2%) were called active.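 Rule for the calls: active = inhibition above the mean of all tested compounds plus 3 SD (cut at about 49% in these data); inactive = the rest.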 The list shows a part of the results.

Target: Perilipin-5 (Homo sapiens) + 1-acylglycerol-3-phosphate O-acyltransferase ABHD5 (Homo sapiens) (UniProt Q00G26+Q8WTS1)
UniProt Q00G26, sequence (Q00G26 whole entry, looked up): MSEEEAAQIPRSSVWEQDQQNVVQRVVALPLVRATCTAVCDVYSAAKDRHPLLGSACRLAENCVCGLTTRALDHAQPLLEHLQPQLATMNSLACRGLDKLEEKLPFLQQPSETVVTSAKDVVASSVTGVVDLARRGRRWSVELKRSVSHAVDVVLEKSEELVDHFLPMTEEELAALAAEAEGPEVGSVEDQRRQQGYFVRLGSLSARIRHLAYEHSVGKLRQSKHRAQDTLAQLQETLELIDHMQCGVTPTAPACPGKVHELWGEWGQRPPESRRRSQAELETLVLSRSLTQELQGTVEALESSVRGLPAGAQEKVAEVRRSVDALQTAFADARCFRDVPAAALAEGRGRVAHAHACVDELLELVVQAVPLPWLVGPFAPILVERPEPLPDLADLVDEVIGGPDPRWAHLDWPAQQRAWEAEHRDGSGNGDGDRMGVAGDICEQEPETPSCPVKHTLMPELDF
UniProt Q00G26, sequence (Q8WTS1 whole entry, looked up): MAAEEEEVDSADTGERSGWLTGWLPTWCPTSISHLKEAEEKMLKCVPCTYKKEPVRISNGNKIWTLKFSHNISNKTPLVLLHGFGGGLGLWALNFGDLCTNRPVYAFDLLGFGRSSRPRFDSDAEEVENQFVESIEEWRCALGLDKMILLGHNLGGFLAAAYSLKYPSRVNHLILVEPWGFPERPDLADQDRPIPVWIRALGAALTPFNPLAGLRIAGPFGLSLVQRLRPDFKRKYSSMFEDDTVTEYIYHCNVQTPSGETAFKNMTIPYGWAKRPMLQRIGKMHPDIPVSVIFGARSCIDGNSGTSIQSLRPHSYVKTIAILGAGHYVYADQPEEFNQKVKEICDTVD
Test: blockers of ABHD5 binding to perilipin-5 – cell lysate, split luciferase complementation, luminescence, NIH validation set, pilot screen (AID 493035);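 note: 0% = DMSO only wells while the 100% control is not stated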
Conditions: split G. princeps luciferase complementation, lysates, 4 h; at 7.9 µM, stronger effect = higher value

inhibition, inactive:
COc1cc(C2Nc3ccccc3C(=O)N2c2ccccc2)ccc1O (stereo not given) 1.54%
Cc1ccc(-c2nn(-c3cccc(F)c3)cc2CN2CCN(c3ccccn3)CC2)o1 3.54%
Clc1cc(-c2ccc(/C=N/n3cnnc3)o2)ccc1Br 12.9%
COc1ccc(-c2c(NC(=O)c3ccco3)n(C)c3ccccc3c2=O)cc1 -7.54%
CSCCC(NC(C)=O)C(=O)Oc1ccc2c3c(c(=O)oc2c1)CCCC3 (stereo not given) 1.97%
CC(C)(Sc1cc(C(C)(C)C)c(O)c(C(C)(C)C)c1)Sc1cc(C(C)(C)C)c(O)c(C(C)(C)C)c1 -3.81%
CC(=O)O[C@H]1C[C@@]2(C)[C@@H](C[C@@H](O)[C@H]3[C@@]4(C)CC[C@@H](O)[C@@H](C)C4CC[C@@]32C)/C1=C(\CCC=C(C)C)C(=O)O (stereo not given in full) -15.6%
CCOc1ccc(N2C(=O)CC(NCCNc3ccc([N+](=O)[O-])cn3)C2=O)cc1 (stereo not given) -3.04%
Cc1oc(/C=N/NC(=O)CC2(C)OCCO2)cc1Br 7.06%
Cn1c(=S)n(C)c2ccccc21 -2.37%
COc1ccc(C(C)=O)c2c1OCCO2 1.55%
CCC(=O)c1ccc(O)cc1 -10.1%
C=CCC1(Cl)C(=O)C(Cl)=C(N2CCOCC2)C1(OC)OC (stereo not given) -2.17%
C[C@]12C=CC(=O)C=C1CCC1C3CC[C@](O)(C(=O)CO)[C@@]3(C)CC3OC312 (stereo not given in full) -8.77%
CCN1CCn2c3c(c4cc(Cl)ccc42)CCCC31 (stereo not given) -6.29%
COc1cc(OC)c(C(=O)CCCN2CCCC2)c(OC)c1 -2.15%
CCOC(=O)NN1C(=O)c2ccccc2NC1c1ccc(OC)c(OC)c1 (stereo not given) -2.95%
Cc1ccc2c(CC(=O)O)coc2c1 -6.46%
COc1cc2c(cc1OC)-c1cc(OCc3ccccc3Cl)nc(=O)n1CC2 13.2%
COc1ccccc1N1CCN(CC(O)COc2cccc3ccccc23)CC1 (stereo not given) -14.1%
COc1ccc(NC(=S)N2CCN(CCN3C(=O)c4cccc5cccc(c45)C3=O)CC2)cc1 11.9%
CN1CCC(=C2c3ccccc3CC(=O)c3sccc32)CC1 0.17%
OC(CCCN1CCC(O)(c2ccc(Cl)cc2)CC1)c1ccc(F)cc1 (stereo not given) -4.39%
COC(=O)c1cc(-c2c(C)oc3cc(OC)ccc3c2=O)c(C)o1 -4.02%
O=C1CCCC(=O)C1=Cc1c[nH]c2ccccc12 -1.77%
CC(=O)O[C@H]1CSC[C@H]1NC(=O)c1ccccc1 -9.72%
C=C(C)c1nc2cc(OC)c(OC)cc2c(=O)o1 -8.54%
CC1=C/C(=N\N=C2\NC(=O)C(CC(=O)Nc3ccccc3F)S2)CC(C)(C)C1 (stereo not given) -1.54%
COc1ccc(C(=O)Nc2ncc3c(n2)CC(C)CC3=O)cc1 (stereo not given) -2.67%
CC(C)(S)[C@@H](N)C(=O)O 1.85%
CC(=O)Oc1ccc2c(=O)c(Oc3ccccc3[N+](=O)[O-])coc2c1 3.75%
Cc1cc(C)cc(Nc2nc3c([nH]2)c(=O)n(C)c(=O)n3C)c1 -2.83%
CN1CCCN=C1COC(=O)C(O)(c1ccccc1)C1CCCCC1 (stereo not given) -1.95%
CC(C)(C)C(=O)NCCCNc1ccc([N+](=O)[O-])cc1 -3.12%
C[C@H](NC(=O)NCCc1ccccc1)C(=O)O -1.56%
O=Cc1ccc(O)c(O)c1 1.43%
COc1ccc(-c2cc(=O)oc3c(C)c(O)c(CN(C)C)cc23)cc1 -3.13%
COC(=O)c1[nH]c2ccccc2c1NC(=O)CN1CCN(C/C=C/c2ccccc2)CC1 4.25%
Cc1c(O)c(=O)ccn1C -1.86%
CCC(=O)O[C@]1(C(=O)CCl)[C@@H](C)C[C@H]2[C@@H]3CCC4=CC(=O)C=C[C@]4(C)[C@@]3(F)[C@@H](O)C[C@@]21C -10.2%
Cc1ccc(C(=O)N2CC3(C(C)C)CN(C(=O)c4ccc(C)cc4)CC(C(C)C)(C2)C3=O)cc1 -13.4%
CCOc1cccc(N2C(=O)CC(N(CCc3ccc(OC)c(OC)c3)C(=O)CC)C2=O)c1 (stereo not given) -6.64%
CN(C)CC/C=C1\c2ccccc2Sc2ccc(Cl)cc21 -9.08%
CCN(CCCCCN(C)C)Cc1cc2ccccc2o1 -4.57%
COc1ccc(CCN(C)CC(=O)Nc2cc(C)nc3ccccc23)cc1OC 5.63%
O=C1OCCN1/N=C/c1ccc([N+](=O)[O-])o1 3.06%
COc1ccc(NC2=C(Cl)C(=O)N(c3ccccc3)C2=O)c(OC)c1 -1.12%
COc1ccc(NC(=O)C2CSC3c4ccccc4C(=O)N23)cc1 (stereo not given) 4.85%
COc1ccc(-c2noc(-c3ccccc3-c3ccccc3)n2)cc1 7.56%
COC(=O)c1[nH]c2ccc(C)cc2c1NC(=O)CN1CCc2cc(OC)c(OC)cc2C1 0.77%
COc1ccc(-c2[nH]ncc2C=O)cc1OC 2.87%
O=C(Nc1ncc2c(n1)CC(c1ccco1)CC2=O)c1ccco1 (stereo not given) 0.31%
COc1cccc2c(=O)c(C/C=C(/C)Cl)c(C)[nH]c12 -0.4%
COc1ccc(C2CNC(=O)C2)cc1OC1CCCC1 (stereo not given) -5.17%
CC(C)c1ccc(/C=C/C(=O)O)cc1 -8.41%
N#Cc1c2c(c(-c3ccccc3)[nH]c1=O)CCCC2 5.3%
Cc1nc(-c2coc3c(CN(C)C)c(O)ccc3c2=O)cs1 2.55%
C[C@H]1C[C@@H]2[C@H]([C@@H](O)C[C@@]3(C)[C@H]2CC[C@]3(O)C(=O)CO)[C@@]2(C)C=CC(=O)C=C12 -2.75%
O=C1[C@@H]2[C@H](Cc3ccc(O)cc3)N[C@]3(C(=O)Nc4ccccc43)[C@@H]2C(=O)N1c1ccc(F)cc1 -3.2%
CCOC(=O)N1CCN(Cc2nc(Cc3cccc(F)c3)no2)CC1 -6.6%
COc1ccc(NC(=O)Nc2ccc(C(C)C)cc2)cc1 -3.33%
CC12CCC(C(=O)NCc3ccccn3)(OC1=O)C2(C)C (stereo not given) -8.39%
COc1cccc(NC(=O)C2CC(=O)OC23CCOC(C)(C)C3)c1 (stereo not given) 0.34%
COC(=O)c1ccc(-c2ncc(-c3cccc4ccccc34)o2)cc1 1.49%
CCCNCC(O)COc1ccccc1C(=O)CCc1ccccc1 (stereo not given) -2.08%
O=C(Nc1ccccc1C(=O)N1CCCCCC1)c1ccccc1Cl -1.51%
CN1CCc2c(n(CC(O)CN(CCO)CCO)c3ccccc23)C1=O (stereo not given) -4.52%
O=[N+]([O-])c1cccc2cn[nH]c12 -7.71%
Cc1ccc2nc(C)c3c(c2c1)OC(C(C)(Cl)Br)C3 (stereo not given) -11.2%
CN(C)c1nc(N(C)C)nc(N(C)C)n1 -7.99%
O=C(CCc1c[nH]c2ccccc12)NCc1ccco1 6.8%
COC(=O)CSc1nc2ccc(N)cc2s1 -6.18%
Nc1ccc2[nH]ncc2c1 -5.44%
NNC(=O)c1cc(O)c(O)c(O)c1 -2.61%
Cc1ccc(S(=O)(=O)N2CCC(C(=O)N[C@@H](C)C(=O)NC3CCS(=O)(=O)C3)CC2)cc1 (stereo not given in full) -6.13%
O=C(O)c1cc(-c2ccccc2)nc2ccccc12 -2.12%
CC(=O)O[C@]1(C(C)=O)CC[C@H]2[C@@H]3C[C@H](C)C4=CC(=O)CC[C@]4(C)[C@H]3CC[C@@]21C 0.64%
Oc1ccccc1OCCOc1ccccc1OCCOc1ccccc1O -3.79%
CCOCC(=O)Nc1nc2ccccc2s1 -2.55%
O=c1[nH]c(=O)n(C2CCCO2)cc1F (stereo not given) 4.06%
CC(NCCC(c1ccccc1)c1ccccc1)c1ccccc1 (stereo not given) -3.07%
CC(C)c1ccccc1OCCNC(=S)NC(=O)c1cccnc1 3.5%
CCOC(=O)C1C(=O)CC(C)(O)C(C(=O)OCC)C1/C=C/c1ccccc1 (stereo not given) -7.86%
CCc1cn([C@H]2C[C@H](O)[C@@H](CO)O2)c(=O)[nH]c1=O 5.96%
CSCCC(NC(=O)/C(=C/c1ccc2c(c1)OCO2)NC(=O)c1cccc([N+](=O)[O-])c1)C(=O)O (stereo not given) 5.37%
CC(C)c1ccc(NC(=O)CNS(=O)(=O)c2ccc(F)cc2)cc1 1.38%
CC1(C)CC(NC(=O)C23CCC(C)(C(=O)C2=O)C3(C)C)CC(C)(C)N1 (stereo not given) -7.41%
N=c1c[n+](N2CCOCC2)[n-]o1 -3.09%
CN1CCN(CCCN2c3ccccc3Sc3ccc(Cl)cc32)CC1 -9.46%
CC(C)CC(=O)OC1C(N2CCOCC2)c2c(ccc(/C=C/C(=O)N3CCOCC3)c2O)OC1(C)C (stereo not given) -5.11%
Nc1cccc2c1nnn2C1OC(CO)C(O)C(O)C1O (stereo not given) -6.06%
Cc1ccccc1C(=O)Oc1ccc(Sc2ccc(O)cc2)cc1 -0.58%
CCN(CC)C1=C(Cl)C(=O)C(Cl)C12OCCO2 (stereo not given) -9.64%
O=C(NCCN1CCCCC1)c1c(O)c2ccccc2[nH]c1=O -5.34%

inhibition, active:
O=C1C=CC(=O)C(C2=C3C(=O)N(CCc4ccccc4)CC(=O)N3CCC2)=C1 74.5%
